PubChem BioAssay (Tox21)
Values joined by “and” are separate entries in the source; they are usually repeats but may differ in a detail not shown here. Identical values can stand only once. The shares of active, inactive and inconclusive entries below differ from those in the screen. For some assays here: A potency beside an inconclusive call is a rough fit, not a confirmed value. A structure can be active in one record and inactive in another. Active and inactive are the calls of the source. Unless noted, the call rests on the fitted dose curve; in most records, active means well fitted curve in the direction sought with a large enough effect in the repeat runs; inconclusive means weak or mixed curves; inactive means no such curve, though single readings can be large; an effect the other way counts as inactive or inconclusive.

Key:
[1] = qHTS assay to identify small molecule agonists of the sonic hedgehog signaling (Shh) pathway - cell viability counter screen (AID 1259366); further: nearly all actives have a fitted effect of over 50% in size
Summary of the method: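 Cells are plated at 2,000 per well and left 4hr at 37C, 5% CO2 before compound addition. After 23hr of treatment, CellTiter-Fluor reagent is added for 1hr at 37C and fluorescence is measured.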

[2] = qHTS assay to identify small molecule antagonists of the sonic hedgehog signaling (Shh) pathway - cell viability counter screen (AID 1259367); further: nearly all actives have a fitted effect of over 55% in size
Summary of the method: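 Fluorescence read-out (CellTiter-Fluor, 1 hr at 37C) taken after 23 hr compound treatment of 3T3 Gli1-Luc cells stimulated with conditioned medium. Cells were seeded at 2,000 per well and pre-incubated 4 hr.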

[3] = qHTS assay to identify small molecule agonists of the sonic hedgehog signaling (Shh) pathway (AID 1259368; calls by dose curve; further: nearly all actives have a fitted effect of over 15% in size;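 on activity change: NIH/3T3-derived 3T3Gli1-Luc cells carrying a stable Gli1-driven firefly luciferase reporter; on the % scale 0 is the no-effect control and ±100 the full control effect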)
Summary of the method: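 Stable NIH/3T3 Gli1-Luc reporter clone; 24 hr cpd exposure after a 4 hr settling period; luminescence endpoint.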

[4] = qHTS assay to identify small molecule HDAC inhibitors - cell viability counter screen (AID 1259365); further: nearly all actives have a fitted effect of over 50% in size
Summary of the method: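 Counter screen in wild-type HCT-116 cells: compounds dissolved in DMSO are pin-transferred onto overnight-plated cells and left 2hr at 37C. ATP-based CellTiter-Glo luminescence then measures viable cells.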

[5] = target: Estrogen receptor beta (Homo sapiens) (UniProt Q92731); assay: qHTS assay to identify small molecule antagonists of the estrogen receptor beta (ER-beta) signaling pathway (AID 1259378; active means well fitted inhibition curve with a large enough effect in the signal ratio in the repeat runs, not every such curve was filed as active; inconclusive means weak or mixed curves, or effect the other way; inactive means no such curve, though single readings can be large or run the other way; the % refers to the signal ratio; on activity, negative = inhibition: on the % scale 0 is the no-effect control and ±100 the full control effect); settings: ER-beta-UAS-bla HEK293T, beta-lactamase FRET ratio, 16 h; activity, negative = inhibition: at 92.4 µM (top of the series) unless noted
Summary of the method: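 ER-beta-UAS-bla HEK293T cells in 2% charcoal-stripped FBS medium treated with compound plus 1nM final 17-beta-estradiol for 16 hr at 37C. Beta-lactamase reporter read by FRET substrate fluorescence after 2 hours at room temperature.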

[6] = qHTS assay to identify small molecule agonists of the estrogen receptor beta (ER-beta) signaling pathway - cell viability counter screen (AID 1259380); further: nearly all actives have a fitted effect of over 30% in size
Summary of the method: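 In this qHTS counter screen, HEK293T cells carrying an ER-beta/UAS beta-lactamase reporter, grown in 2% charcoal-stripped FBS, received compound for 16 hr; ATP-based CellTiter-Glo luminescence was then read after 30 min at room temperature.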

[7] = target: Thyrotropin receptor (Homo sapiens) (UniProt P16473); assay: qHTS assay to identify small molecule antagonists of the thyroid stimulating hormone receptor (TSHR) signaling pathway (AID 1259385; calls by dose curve; further: nearly all actives have a fitted effect of over 20% in size; on activity change, negative = inhibition: on the % scale 0 is the no-effect control and ±100 the full control effect); settings: TSHR-HEK293 cAMP HTRF, TSH-stimulated antagonist mode; activity change, negative = inhibition: at 92.4 µM (top of the series) unless noted
Summary of the method: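 TSHR-HEK293 cells (800/well) plated 18 h, then compounds with Ro20-1724 and TSH at 1.5 ng/mL final, 30 min at room temperature. cAMP quantified by HTRF (cAMP-d2/anti-cAMP-cryptate, 1 h); 15 concentrations in triplicate.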

[8] = qHTS assay to identify small molecule agonists of the estrogen receptor alpha (ER-alpha) signaling pathway in the presence of an antagonist - cell viability counter screen (AID 1259386);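 further: cells exposed to compounds for 22 h at 37 °C before the viability read; nearly all actives have a fitted effect of over 30% in size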
Summary of the method: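 Steps: 5-day stripped-FBS culture; seed and incubate 24hr; add ICI-182,780 (10.0nM final); pin 15-point compound titration; incubate 22hr at 37C; add CellTiter-Fluor at 21hr; read fluorescence.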

[9] = target: Estrogen receptor beta (Homo sapiens) (UniProt Q92731); assay: qHTS assay to identify small molecule agonists of the estrogen receptor beta (ER-beta) signaling pathway (AID 1259377; active means well fitted activation curve with a large enough effect in the signal ratio in the repeat runs, not every such curve was filed as active; inconclusive means weak or mixed curves, or effect the other way; the % refers to the signal ratio); settings: ER-beta-UAS-bla HEK293T, beta-lactamase FRET ratio, 16 h; activation: at 92.4 µM (top of the series) unless noted
Summary of the method: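 Agonist mode cell assay in GripTite HEK293T cells expressing an ER-beta fusion that drives beta-lactamase from an Upstream Activator Sequence; 16 hr compound exposure at 37C, then 2 h LiveBLAzer B/G FRET substrate at room temperature, fluorescence read-out.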

[10] = qHTS assay to identify small molecule antagonists of the estrogen receptor beta (ER-beta) signaling pathway - cell viability counter screen (AID 1259382); further: nearly all actives have a fitted effect of over 55% in size
Summary of the method: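 HEK293T ER-beta-UAS-bla, 2% charcoal-stripped FBS; compounds + 1nM E2 16 hr 37C; CellTiter-Glo luminescence, 30 min RT.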

[11] = qHTS assay to identify small molecule antagonists of the sonic hedgehog signaling (Shh) pathway (AID 1259369; calls by dose curve; further: nearly all actives have a fitted effect of over 45% in size)
Summary of the method: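 Gli1 transcriptional reporter (firefly Luc) in NIH/3T3 background, conditioned-medium activated. 24hr exposure, luminescence endpoint.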

[12] = qHTS assay to identify small molecule HDAC inhibitors (AID 1259364);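 further: wild-type HCT-116 cells with endogenous class I/II HDAC activity; nearly all actives have a fitted effect of over 45% in size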
Summary of the method: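 After a 2 hr compound incubation (37C, 5% CO2), HCT-116 cells seeded at 1,500/well the day before received HDAC-Glo reagent; signal read as luminescence after 30 min at room temperature.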

[13] = qHTS assay to identify small molecule agonists of the androgen receptor (AR) signaling pathway in the presence of an antagonist - cell viability counter screen (AID 1259379); further: nearly all actives have a fitted effect of over 25% in size
Summary of the method: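 Counter screen for cell viability run in parallel with the AR agonist-mode luciferase assay. MDA-kb2 cells were co-treated with nilutamide (3.0uM final) and compounds, then incubated 16 hr at 37C, and CellTiter-Fluor fluorescence was measured.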

[14] = qHTS assay to identify small molecule agonists or antagonists of the thyroid stimulating hormone receptor (TSHR) signaling pathway - wild type cell line counter screen (AID 1259384; calls by dose curve); settings: HEK293 wild type, cAMP HTRF counter-screen; cAMP activity change: at 92.4 µM (top of the series), stronger effect = higher value unless noted
Summary of the method: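 Wild-type Hek293 cells, 800/well, 18 h at 37C, then compound with Ro20-1724 for 30 min RT. cAMP by HTRF (cAMP-d2/anti-cAMP cryptate), 1 h RT, fluorescence read. 15 concentrations, triplicates.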

[15] = target: Androgen receptor (Homo sapiens) (UniProt P10275); assay: qHTS assay to identify small molecule agonists of the androgen receptor (AR) signaling pathway in the presence of an antagonist (AID 1259381; calls by dose curve; further: nearly all actives have a fitted effect of over 15% in size)
Summary of the method: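 AR antagonist background: nilutamide 3.0uM final. Cell line: MDA-kb2, MMTV-driven luciferase, responsive to both AR and GR. Exposure 16hr, 37C, no CO2; ONE-Glo luminescence.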
Potency means the concentration at half of the fitted maximal effect; tags describe the fitted curve by direction and shape or compound fluorescence and quenching.

UniProt Q92731, sequence (Q92731 whole entry, looked up, the tested form may be a part): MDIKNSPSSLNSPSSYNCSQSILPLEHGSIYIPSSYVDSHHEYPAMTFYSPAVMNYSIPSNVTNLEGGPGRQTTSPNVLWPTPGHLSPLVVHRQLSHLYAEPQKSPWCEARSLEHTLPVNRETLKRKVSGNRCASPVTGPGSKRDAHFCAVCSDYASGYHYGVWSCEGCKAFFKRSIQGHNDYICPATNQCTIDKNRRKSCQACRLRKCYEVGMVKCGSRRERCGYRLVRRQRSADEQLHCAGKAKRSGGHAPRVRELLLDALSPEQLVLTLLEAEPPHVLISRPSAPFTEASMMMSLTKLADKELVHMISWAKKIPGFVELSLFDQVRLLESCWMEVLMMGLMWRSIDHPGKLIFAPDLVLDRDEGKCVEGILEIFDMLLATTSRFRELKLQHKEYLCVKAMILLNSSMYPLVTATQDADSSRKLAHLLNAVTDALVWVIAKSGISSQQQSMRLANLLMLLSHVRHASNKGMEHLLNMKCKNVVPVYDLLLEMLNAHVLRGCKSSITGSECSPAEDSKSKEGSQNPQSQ
UniProt P16473, sequence (P16473 whole entry, looked up): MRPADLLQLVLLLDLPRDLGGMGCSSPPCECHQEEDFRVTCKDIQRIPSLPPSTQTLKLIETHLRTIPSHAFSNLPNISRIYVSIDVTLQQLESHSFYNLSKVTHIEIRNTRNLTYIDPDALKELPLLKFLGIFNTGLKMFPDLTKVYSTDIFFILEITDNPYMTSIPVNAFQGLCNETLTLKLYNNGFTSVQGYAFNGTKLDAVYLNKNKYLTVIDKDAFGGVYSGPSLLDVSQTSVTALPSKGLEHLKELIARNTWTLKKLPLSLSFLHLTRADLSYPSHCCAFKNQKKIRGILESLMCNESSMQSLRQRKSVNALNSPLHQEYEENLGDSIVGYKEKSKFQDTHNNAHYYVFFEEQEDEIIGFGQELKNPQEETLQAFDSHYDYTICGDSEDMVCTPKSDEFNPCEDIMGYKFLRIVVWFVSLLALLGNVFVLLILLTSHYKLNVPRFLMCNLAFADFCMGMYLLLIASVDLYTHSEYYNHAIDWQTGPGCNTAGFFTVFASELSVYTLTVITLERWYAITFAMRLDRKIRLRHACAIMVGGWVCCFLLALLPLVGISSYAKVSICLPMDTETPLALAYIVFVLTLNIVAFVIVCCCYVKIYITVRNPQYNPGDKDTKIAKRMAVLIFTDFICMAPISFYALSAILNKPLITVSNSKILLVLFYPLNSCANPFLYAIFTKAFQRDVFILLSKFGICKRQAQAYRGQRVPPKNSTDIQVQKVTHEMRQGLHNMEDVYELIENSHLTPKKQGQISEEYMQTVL
UniProt P10275, sequence (P10275 whole entry, looked up): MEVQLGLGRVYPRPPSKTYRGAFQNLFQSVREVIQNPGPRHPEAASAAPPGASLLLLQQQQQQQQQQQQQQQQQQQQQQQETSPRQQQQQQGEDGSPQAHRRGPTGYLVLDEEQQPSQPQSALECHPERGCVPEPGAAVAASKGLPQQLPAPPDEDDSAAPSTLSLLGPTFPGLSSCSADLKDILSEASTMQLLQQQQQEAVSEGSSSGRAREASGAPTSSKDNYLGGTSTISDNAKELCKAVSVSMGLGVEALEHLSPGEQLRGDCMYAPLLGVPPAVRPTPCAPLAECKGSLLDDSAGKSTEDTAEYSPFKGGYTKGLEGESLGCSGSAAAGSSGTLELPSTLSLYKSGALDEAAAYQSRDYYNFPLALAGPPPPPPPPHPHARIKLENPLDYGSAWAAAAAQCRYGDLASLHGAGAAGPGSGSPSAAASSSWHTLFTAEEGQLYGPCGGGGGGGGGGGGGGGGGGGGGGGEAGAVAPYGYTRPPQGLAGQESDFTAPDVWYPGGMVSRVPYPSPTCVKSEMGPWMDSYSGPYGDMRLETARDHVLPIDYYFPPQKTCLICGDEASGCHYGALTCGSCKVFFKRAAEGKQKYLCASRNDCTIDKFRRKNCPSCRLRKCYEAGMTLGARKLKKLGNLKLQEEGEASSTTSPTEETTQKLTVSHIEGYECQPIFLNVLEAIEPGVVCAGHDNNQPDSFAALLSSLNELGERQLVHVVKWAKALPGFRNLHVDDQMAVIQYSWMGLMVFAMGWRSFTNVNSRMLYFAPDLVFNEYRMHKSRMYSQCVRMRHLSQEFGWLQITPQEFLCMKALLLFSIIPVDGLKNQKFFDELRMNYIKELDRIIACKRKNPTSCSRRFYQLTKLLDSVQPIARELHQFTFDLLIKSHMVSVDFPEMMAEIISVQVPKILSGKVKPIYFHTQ

In the case of `CCCCC(CC)COS(=O)(=O)O` (centres undefined), the Potency [1] is reported as “inactive”.

For `C=CCCCCCCC=C`, the Potency [1] was inconclusive: 68.7 µM [cytotoxic, single point], the Potency [2] was inconclusive: 68.7 µM [cytotoxic] and the Potency [3] was “inactive”.

In the case of `O=S1(=O)CC(Cl)(Cl)C(Cl)(Cl)C1`, the Potency [4] is reported as active: 48.6 µM, the Potency [1] is reported as active: 1.37 µM and the Potency [5] is reported as active: 4.86 µM. For the same molecule, the Potency [6] was active: 9.69 µM, the Potency [7] was active: 48.6 µM and the Potency [8] was active: 27.3 µM.

With `CCCCCCC(C)OC(=O)COc1nc(F)c(Cl)c(N)c1Cl` (centres undefined) the Potency [4] was inconclusive: 61.1 µM [cytotoxic, partial curve], the activity, negative = inhibition [5] was inconclusive: -35.8% and the Potency [6] was active: 68.6 µM. For the same molecule, the Potency [7] was “inactive”.

In the case of `CCCCC(CC)CN=C(N)NC(N)=NCCCCCCN=C(N)NC(N)=NCC(CC)CCCC` (centres undefined), the Potency [4] is reported as active: 29.8 µM, the Potency [9] is reported as inconclusive: 21.1 µM [falling, partial curve, poor fit] and the Potency [5] is reported as inconclusive: 33.5 µM [cytotoxic, single point]. For the same molecule, the Potency [10] was active: 13.3 µM.

For `OC1(c2ccc(Cl)c(C(F)(F)F)c2)CCN(CCCC(c2ccc(F)cc2)c2ccc(F)cc2)CC1`, the Potency [4] was inconclusive: 29.8 µM [cytotoxic], the Potency [11] was active: 13.3 µM and the Potency [9] was inconclusive: 21.1 µM [falling, partial curve]. For the same molecule, the Potency [5] was inconclusive: 21.1 µM [cytotoxic, partial curve] and the Potency [6] was active: 10.6 µM.

With `CCN(CC)c1ccc2c(C)cc(=O)oc2c1` the Potency [4] was “inactive”, the Potency [1] was inconclusive: 30.9 µM [rising, partial curve] and inconclusive: 30.6 µM [rising, partial curve] and the Potency [5] was inconclusive: 54.9 µM [fluorescent] and inconclusive: 54.5 µM [fluorescent, partial curve]. The Potency [6] was inconclusive: 30.9 µM [cytotoxic, partial curve] and inconclusive: 19.3 µM [cytotoxic, partial curve] and the Potency [10] was inconclusive: 69.1 µM [cytotoxic, partial curve, poor fit].

With `Cc1cc(CCN2CCN(c3nsc4ccccc34)CC2)cc2c1NC(=O)CC2(C)C` the Potency [12] was inconclusive: 48.6 µM [inhibitor, partial curve], the Potency [1] was active: 21.7 µM and the Potency [2] was active: 19.3 µM. The Potency [5] was inconclusive: 24.3 µM [partial curve] and the Potency [7] was inconclusive: 68.6 µM.

For `CCCCCCCCCCCCCCCCCC[N+](C)(C)Cc1ccccc1`, the Potency [4] was active: 61.7 µM, the Potency [11] was active: 0.155 µM and the Potency [9] was inconclusive: 77.7 µM [cytotoxic, single point]. The Potency [5] was inconclusive: 69.2 µM [cytotoxic, single point] and the Potency [8] was inconclusive: 69.2 µM [cytotoxic].

For `COc1ccccc1/C=C/C=O`, the Potency [4] was inconclusive: 54.5 µM [rising, partial curve, poor fit], the Potency [2] was inconclusive: 62.8 µM [cytotoxic] and the Potency [11] was active: 35.3 µM. For the same molecule, the Potency [9] was inconclusive: 70.4 µM [rising, single point], the Potency [5] was active: 55.9 µM and active: 54.5 µM and the Potency [13] was inconclusive: 62.8 µM [cytotoxic, partial curve] and inconclusive: 61.1 µM [cytotoxic, partial curve]. The Potency [6] was active: 55.9 µM and inconclusive: 61.1 µM [cytotoxic, partial curve], the Potency [10] was inconclusive: 68.6 µM [cytotoxic, partial curve, poor fit] and the activity change, negative = inhibition [7] was inconclusive: 8.58%.

With `CCN=C1C=CC(=C(c2ccc(N(CC)CC)cc2)c2ccc(N(CC)CC)cc2)c2ccccc21` the Potency [4] was active: 34.2 µM, the Potency [1] was active: 21.6 µM and the Potency [11] was active: 0.0963 µM. For the same molecule, the Potency [5] was inconclusive: 96.3 µM [cytotoxic, single point], the Potency [14] was inconclusive: 22.4 µM and the Potency [7] was inconclusive: 21.6 µM [falling, partial curve]. For the same molecule, the Potency [8] was active: 9.63 µM.

In the case of `Cc1ccc2nc(-c3ccc(N)cc3)sc2c1S(=O)(=O)O`, the Potency [12] is reported as active: 3.8 µM, the Potency [3] is reported as active: 1.9 µM and the Potency [9] is reported as inconclusive: 13.5 µM [fluorescent, partial curve]. The activity, negative = inhibition [5] was inconclusive: 10.5% [at 42.5 µM] and the Potency [15] was inconclusive: 15.1 µM [rising, partial curve].
